Some of the results follow. At the low end of the ranking the order means little.
Each sequence was assayed against T1, GST-Rok-C97-191 (UniProt O34857) (assay: protein binding microarray). Conditions: Rok is a gene silencer of Bacillus subtilis; high values mean tight binding; most listed sequences are background and not binding sites; double strand, one strand shown.
T1 sequence: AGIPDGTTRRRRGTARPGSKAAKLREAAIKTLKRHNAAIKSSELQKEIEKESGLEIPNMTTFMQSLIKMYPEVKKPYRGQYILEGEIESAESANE
Sequence CAGGAAGA has a binding signal of -0.127 E-score.
Sequence CAAACCAC has a binding signal of -0.131 E-score.
AAGATAGT was tested, and the binding signal was 0.243 E-score.
In the case of TGTGGGAA, the binding signal is reported as -0.075 E-score.
Work on AAGTACAC yielded a binding signal of 0.275 E-score.
AATCGGCC gave a binding signal of 0.0325 E-score.
With CCACACGG the binding signal was -0.148 E-score.
For GGACCGCA, the binding signal was -0.213 E-score.
TACTGGAA showed a binding signal of 0.157 E-score.
GAGCATGC gave a binding signal of -0.135 E-score.
CGAACCGC showed a binding signal of -0.141 E-score.
In the case of GAGAAATC, the binding signal is reported as 0.0248 E-score.
Sequence CTTAGTGC has a binding signal of -0.0654 E-score.
ACACACGG showed a binding signal of -0.216 E-score.
In the case of AATAATTG, the binding signal is reported as 0.0816 E-score.
Work on CATAGACA yielded a binding signal of -0.0183 E-score.
AAAGAAAT gave a binding signal of -0.0989 E-score.
Work on GAAATGAA yielded a binding signal of 0.00977 E-score.
In the case of CTTCCAGC, the binding signal is reported as -0.0613 E-score.
Work on CTGAGCGA yielded a binding signal of 0.00947 E-score.
CCGAACCG was tested, and the binding signal was -0.32 E-score.
GAGTCGCA gave a binding signal of -0.162 E-score.
ATTACTAA was tested, and the binding signal was 0.326 E-score.
CGAGTGCG was tested, and the binding signal was -0.0584 E-score.
Sequence CTGTAGGA has a binding signal of 0.118 E-score.
ACCAAGAG showed a binding signal of -0.149 E-score.
With ATCCAGTC the binding signal was -0.0969 E-score.
CCTGCCGC was tested, and the binding signal was -0.386 E-score.
Sequence ATAGGCGA has a binding signal of -0.00979 E-score.
With TACAGCAA the binding signal was 0.0466 E-score.
For GAAGATGC, the binding signal was -0.0628 E-score.
For GAGTGCCA, the binding signal was -0.218 E-score.
CAAAGGGC was tested, and the binding signal was -0.206 E-score.
Work on CCTCGATC yielded a binding signal of -0.126 E-score.
GCAGAGAC gave a binding signal of -0.236 E-score.
CGGAGCAG was tested, and the binding signal was -0.201 E-score.
For CTAAACAG, the binding signal was -0.177 E-score.
CTTCTGGA showed a binding signal of -0.138 E-score.
CCCGGCGG gave a binding signal of -0.32 E-score.
AAGGTAAA showed a binding signal of 0.107 E-score.
For AGGGAAGC, the binding signal was -0.268 E-score.
GCAAAAAC gave a binding signal of 0.0468 E-score.
ACTTGGAT was tested, and the binding signal was 0.0828 E-score.
AGGAAAGC gave a binding signal of -0.231 E-score.
For CAACCATG, the binding signal was -0.0768 E-score.
AATTTAAT was tested, and the binding signal was 0.321 E-score.
In the case of CTAACCGA, the binding signal is reported as -0.169 E-score.
ATACTCTA showed a binding signal of 0.206 E-score.
For ATTTGAGC, the binding signal was -0.175 E-score.
AGCCCCGG gave a binding signal of -0.386 E-score.
ACAGCTCC gave a binding signal of -0.0848 E-score.
Work on ATCAGCCC yielded a binding signal of -0.226 E-score.
Work on ATTCATGA yielded a binding signal of 0.0548 E-score.
Work on CTGTCACA yielded a binding signal of -0.144 E-score.
Work on CTCAACAA yielded a binding signal of -0.199 E-score.
For AGGCTTAG, the binding signal was -0.213 E-score.
In the case of GAGTTCGA, the binding signal is reported as -0.09 E-score.
Sequence CTACCGAG has a binding signal of 0.236 E-score.
ATAGCCGG showed a binding signal of -0.056 E-score.
In the case of GGTCGGGA, the binding signal is reported as -0.255 E-score.
Sequence GTTGGGGA has a binding signal of -0.0942 E-score.
CCCGGTAC showed a binding signal of -0.0654 E-score.
Work on ACTGTTCT yielded a binding signal of -0.0975 E-score.
AGGAGAGA was tested, and the binding signal was -0.000748 E-score.
CGCAATAA gave a binding signal of -0.0268 E-score.
For ATATCACG, the binding signal was 0.157 E-score.
Sequence CTGTCGAA has a binding signal of -0.0758 E-score.
In the case of ACCCCACT, the binding signal is reported as -0.171 E-score.
TACGTTCA was tested, and the binding signal was 0.085 E-score.
In the case of GTTGTTCA, the binding signal is reported as 0.105 E-score.
For CGGTCCAC, the binding signal was -0.206 E-score.
GGGAGGAA gave a binding signal of -0.0773 E-score.
With CCACTGAG the binding signal was -0.0835 E-score.
GAGTCGAA was tested, and the binding signal was -0.145 E-score.
CTCTCGGA was tested, and the binding signal was -0.0508 E-score.
CATAAGCG showed a binding signal of -0.222 E-score.
CTTGTATA gave a binding signal of 0.18 E-score.
With ACGCCTCA the binding signal was -0.108 E-score.
CAACTGTG gave a binding signal of 0.0396 E-score.
CTCCGCCA was tested, and the binding signal was -0.237 E-score.
With GCACCTCC the binding signal was -0.227 E-score.
For ATCTGTTC, the binding signal was -0.118 E-score.
ACCAACTA showed a binding signal of 0.161 E-score.
In the case of GCAGACGC, the binding signal is reported as -0.208 E-score.
With ATCGCAAA the binding signal was 0.0121 E-score.
Work on AGCAATTC yielded a binding signal of 0.115 E-score.
Work on GGTAATAC yielded a binding signal of 0.268 E-score.
CCCGTAAA was tested, and the binding signal was 0.12 E-score.
Sequence GCATCAAC has a binding signal of 0.0173 E-score.
Sequence CGAGTCGA has a binding signal of -0.0343 E-score.
For CAATTCGC, the binding signal was -0.0316 E-score.
With ATAGCTCC the binding signal was -0.0632 E-score.
For AGCTCTAA, the binding signal was -0.0978 E-score.
For CTATGCTC, the binding signal was -0.0315 E-score.

— article PMC6212790
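Further: rank score from −0.5 (least bound) to 0.5 (best bound).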
